# Reference: PubChem BioAssay AID485344 (National Center for Advancing Translational Sciences (NCATS), 2010)
# About 6,900 (2%) of roughly 340,000 compounds were called active. No stated cut-off is given here; in the data, active means inhibition above about 30%; inactive means below that, where a call was filed. The list shows a part of the results, in another mix than the full data. Where no call is shown, the source filed none.
# Molecular target: D(2) dopamine receptor (Homo sapiens) (UniProt P14416)
# Sequence of UniProt P14416 (P14416 whole entry, looked up): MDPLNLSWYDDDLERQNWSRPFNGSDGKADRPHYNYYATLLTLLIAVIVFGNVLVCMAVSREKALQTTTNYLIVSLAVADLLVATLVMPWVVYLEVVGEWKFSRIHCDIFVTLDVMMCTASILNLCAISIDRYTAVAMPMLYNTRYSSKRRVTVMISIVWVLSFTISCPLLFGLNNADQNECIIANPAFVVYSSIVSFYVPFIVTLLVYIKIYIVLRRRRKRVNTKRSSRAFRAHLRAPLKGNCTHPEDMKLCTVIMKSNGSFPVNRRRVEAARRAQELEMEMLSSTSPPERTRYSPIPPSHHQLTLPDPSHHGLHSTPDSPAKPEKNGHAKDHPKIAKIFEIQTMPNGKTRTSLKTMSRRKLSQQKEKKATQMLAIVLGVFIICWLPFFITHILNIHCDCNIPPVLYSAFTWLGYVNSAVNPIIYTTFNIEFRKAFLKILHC
# Experiment: HTS Assay for Allosteric Antagonists of the Human D2 Dopamine Receptor: Primary Screen for Antagonists; further: 0% is about no effect
# Conditions: HEK293 TREx D2 cells, calcium flux, dopamine EC80; at 10 µM; stronger effect = higher value
# From the text: NIH Chemical Genomics Center [NCGC] NIH Molecular Libraries Probe Centers Network [MLPCN] MLPCN Grant: NS064831-01 Assay Submitter (PI): David Sibley Dopamine receptors (DARs) are involved in the etiology and/or therapy of a number of neuropsychiatric and endocrine disorders. For instance, all receptor-based antiparkinsonian drugs work via stimulating the D2 DAR subtype whereas all FDA-approved antipsychotic agents are antagonists of this receptor. […] There are three different types of allosteric modulators that we are seeking, two of which will stimulate or augment receptor signaling, allosteric agonists and potentiators, while the third, allosteric antagonists, will attenuate receptor signaling. The present primary screening assay measures compound antagonism after an EC80 addition of dopamine by tracking calcium flux in a […], inducible Hek293 Trex D2 cell line.
# Freshly passaged cells are plated in 1536 well black, clear bottom plates at a density of 4000 cells/well in 3 ul of complete media containing 1x tetracycline inducer. After an overnight incubation at 30 C in 5% CO2, cells are loaded with 2 ul of the no wash Calcium Assay Kit (ABD Bioquest) and incubated at room temperature for 30 to 90 minutes. Agonist read: A 10 cycle (1 second/cycle) baseline measurement is taken and then the FDSS online 1536 pintool delivers 23 nl of compound library (as well as dopamine controls) to the plate. The plate is measured for kinetically at 1 cycle/sec for 180 seconds. Following the 180 second read, 1 ul of an EC80 (negative modulation assay) is delivered by an onboard pipette head. Measurements are taken kinetically for an additional 180 seconds.
row,SMILES,inhibition
1,CC(COc1ccccc1)N1CCC(CO)(CCc2ccccc2)CC1 (stereo unspecified),active: 51.5%
2,COc1cc(O)ccc1C1CC(=O)Nc2c1c(=O)nc(SCc1ccccc1C)n2C (stereo unspecified),-2.04%
3,CCN1c2ccccc2-c2nc(SCC(=O)Nc3cccc(C(F)(F)F)c3)ncc2S1(=O)=O,-1.53%
4,CCC(C)(C)NS(=O)(=O)c1cc(-c2cc(C)no2)ccc1C,-0.669%
5,Cc1ccc(C)c(CN2C(=O)c3ccccc3S(=O)c3ccc(C(=O)N4CCC(C)CC4)cc32)c1 (stereo unspecified),11.1%
6,COc1ccc(-c2nc(CSCC(=O)N3CCN(C)CC3)c(C)o2)cc1OC,active: 39.6%
7,COc1ccc(CNc2oc(-c3ccc(COc4ccc(Cl)cc4)o3)nc2C#N)cc1,4.46%
8,CCOC(=O)c1cccc(NC(=O)c2cc(S(=O)(=O)N3CCCCCC3)cn2C)c1,6.87%
9,CC1(C)C=C(c2ccc(C=O)s2)CC(C)(C)N1,active: 33.6%
10,CCOC(=O)CSc1nc2sc3c(c2c(=O)n1Cc1ccccc1)CCC(C(C)(C)C)C3 (stereo unspecified),-1.14%
11,COc1ccc(CNC(=O)c2c(Nc3ccc(OC)cc3OC)sc(C(=O)c3ccc(Cl)cc3)c2N)cc1,-3.86%
12,Cc1ccc(NC(=O)c2oc3ccc(S(=O)(=O)N4CCCCC4)cc3c2C)cc1C,13.1%
13,O=C(c1cc2ccc3cccnc3c2[nH]1)N1CCN(c2cccc(C(F)(F)F)c2)CC1,8.72%
14,COc1ccc2c(c1)c1c(c(=O)n(CCc3ccccc3)c(=O)n1Cc1ccccc1)n2C,-4.67%
15,Cc1ccc(C)c2sc(NC(=O)c3ccc(S(=O)(=O)N4CCCC4)cc3)nc12,14.6%
16,CCOc1ccc(CNC(=O)c2ccc3c(c2)nc2n3CCOC2)cc1,-5.94%
17,O=C(Cc1ccccc1[N+](=O)[O-])NC1CCN(Cc2ccccc2)CC1,active: 48.4%
18,CCN1CCN(CCCNC(=O)c2cc3c(=O)n(CC)c4ccccc4c3s2)CC1,6.75%
19,Cc1c(CNCc2ccc(OC(C)C)cc2)c(C(=O)O)c(C)n1Cc1ccc(Cl)cc1,-7.82%
20,COc1ccc(N(C(=O)c2ccccc2F)S(=O)(=O)c2ccc3c(c2)n(C)c(=O)n3C)cc1,-8.44%
21,CC(=O)N1CCOc2cc(S(=O)(=O)NCc3ccc(C)cc3)c(C)cc21,-18.7%
22,COc1cc(OC)cc(C(=O)Nc2ccc3oc(-c4ccccc4C)nc3c2)c1,-7.02%
23,CCC(=O)Nc1ccc(C)cc1-c1nc2ccccc2n(CC(=O)Nc2ccccc2Cl)c1=O,-11.3%
24,CN(CC(=O)Nc1ccc(F)c(F)c1F)C(=O)Cc1ccc2c(c1)OCCO2,active: 35.1%
25,Cc1ccccc1NC(=O)c1c(C)oc2ccc(O)c(CN3CCCC3)c12,11.1%
26,COc1cccc(-c2cc(C(=O)Nc3cc(C)nn3-c3ccccc3)no2)c1,5.34%
